# A collection of fitness landscapes (doi:10.1016/j.celrep.2020.107928)
# Whole data set: some 81,000 sequences, median “one-hybrid fitness for binding NBS DNA” near -0.1, cut for the highest 2% near 0.36. The list shows a part of the results.
# B1: Caulobacter ParB omega fusion; a variant is named by its letters at X, in order, B8GW30 (parent)
# chain: MESVVVGEPGMSEGRRGLGRGLSALLGEVDAAPAQAPGEQLGGSREAPIEILQRNPDQPRRTFREEDLEDLSNSIREKGVLQPILVRPSPDTAGEYQIVAGERAWRAAQRAGLKTVPIMVRELDDLAVLEIGIIENVQRADLNVLEEALSYKVLMEKFERTQENIAQTIGKSXSHVANXMRLLXLPDEVQSYLVSGELTAXHARAIAAAADPVALAKQIIEGGLSVRETEALARKAPNLSAGKSKGGRPPRVKDTDTQALESDLSSVLGLDVSIDHRGSTGTLTITYATLEQLDDLCNRLTRGI
# Variants of: B1
# Experiment: one-hybrid fitness for binding NBS DNA (the Noc-binding site; scaled: cognate 1, non-cognate 0); higher = stronger binding
# Settings: with NBS DNA site
# Outline: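 Fitness here means the log change in variant-to-wild-type read ratio between plasmids sequenced before and after selection. That scale was set so cognate equals 1 and non-cognate equals 0. The selection was a bacterial one-hybrid screen of Caulobacter ParB libraries, four specificity codons randomised, in E. coli USO carrying a HIS3 reporter with the site 19 bp from the promoter, grown 48 hours at 37°C on M9-minus-histidine with 0.1 mM IPTG and 5 mM 3-AT.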
row,Variant,one-hybrid fitness for binding NBS DNA
1,SQQN,≤ 0.2
2,RTPM,≤ 0.2
3,FMDL,≤ 0.2
4,FNRV,≤ 0.2
5,KNHT,≤ 0.2
6,NDRG,≤ 0.2
7,HNRT,0.27
8,FAAV,≤ 0.2
9,NSSA,≤ 0.2
10,TNWR,≤ 0.2
11,YRTA,≤ 0.2
12,TMRY,≤ 0.2
13,CQNS,≤ 0.2
14,VMQG,≤ 0.2
15,RECR,≤ 0.2
16,CDLS,≤ 0.2
17,QACY,≤ 0.2
18,SLPH,≤ 0.2
19,PLSC,≤ 0.2
20,RCAL,≤ 0.2
21,PCTQ,≤ 0.2

row,Variant,one-hybrid fitness for binding NBS DNA
1,PMPS,≤ 0.2
2,SWPR,≤ 0.2
3,DTPC,≤ 0.2
4,PAMC,≤ 0.2
5,TPNR,≤ 0.2
6,IHRT,≤ 0.2
7,ITVG,≤ 0.2
8,TLIW,≤ 0.2
9,SYVS,≤ 0.2
10,LDTW,≤ 0.2
11,GSMY,≤ 0.2
12,TDHL,≤ 0.2
13,KRGF,≤ 0.2
14,SKDT,≤ 0.2
15,QHNL,≤ 0.2
16,MKTR,≤ 0.2
17,GMCE,≤ 0.2
18,ACCP,≤ 0.2
19,IRKW,≤ 0.2
20,RPCI,≤ 0.2
21,RNQN,≤ 0.2

row,Variant,one-hybrid fitness for binding NBS DNA
1,NVWL,≤ 0.2
2,HNTM,≤ 0.2
3,TACC,≤ 0.2
4,PNKR,≤ 0.2
5,PNDH,≤ 0.2
6,FVQC,≤ 0.2
7,QQVL,≤ 0.2
8,RPRE,≤ 0.2
9,AGSL,≤ 0.2
10,CLVM,≤ 0.2
11,HFKK,≤ 0.2
12,TSAA,≤ 0.2
13,QHED,≤ 0.2
14,DDAT,≤ 0.2
15,RSQI,≤ 0.2
16,QNSL,≤ 0.2
17,HGQW,≤ 0.2
18,TLVP,≤ 0.2
19,LLFA,≤ 0.2
20,PNPS,≤ 0.2
21,CYYG,≤ 0.2

row,Variant,one-hybrid fitness for binding NBS DNA
1,GTKA,≤ 0.2
2,ESHS,≤ 0.2
3,FRWL,≤ 0.2
4,LMSL,≤ 0.2
5,RMKV,0.235
6,QMVS,0.282
7,DACT,≤ 0.2
8,AMTV,≤ 0.2
9,ETGR,≤ 0.2
10,TTTW,≤ 0.2
11,DRYK,≤ 0.2
12,SADH,≤ 0.2
13,RYGM,≤ 0.2
14,PINP,≤ 0.2
15,SSFT,≤ 0.2
16,RFLS,≤ 0.2
17,HQQY,≤ 0.2
18,LGRE,≤ 0.2
19,KAAG,≤ 0.2
20,LFPG,≤ 0.2
21,AAPP,≤ 0.2
